Values joined by “and” are separate entries in the source; they are usually repeats but may differ in a detail not shown here. Identical values can stand only once. Inconclusive results, whose numbers are uncertain, are shown with a selection of clear calls. For some assays here: A potency beside an inconclusive call is a rough fit, not a confirmed value. The source holds several records for some structures; these can differ, active in one and inactive in another. Active and inactive are the calls of the source. The call rests on the fitted dose curve; in most records, active means well fitted curve in the direction sought with a large enough effect; inconclusive means small, poorly fitted or top-dose-only effect, or another doubt; inactive means no such curve, though single readings can be large; an effect the other way counts as inactive or inconclusive.
Assays:
CRL-7250 = normal cell line; test: Cytotoxic Profiling of Annotated Libraries Using Quantitative High-Throughput Screening (AID 1296008); details: Five cell lines viability, CellTiter-Glo ATP luminescence, 48-72 h; max response: stronger effect = lower value; further: nearly all actives have a fitted effect of over 60% in size; further: potency means the concentration at half of the fitted maximal effect; on max response: on the % scale 0 is the no-effect control and ±100 the full control effect
How it was run: (§1)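 Cells exposed to compounds for 48 or 72 hr at 37 degrees Celsius. Viability read as ATP-coupled luminescence with CellTiter-Glo after 10 min at room temperature.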

HEK293 = test: as above; details: Five cell lines viability, CellTiter-Glo ATP luminescence, 48-72 h; max response: stronger effect = lower value
How it was run: as §1

HaCat = test: as above; details: Five cell lines viability, CellTiter-Glo ATP luminescence, 48-72 h; max response: stronger effect = lower value
How it was run: as §1

KB-3-1 = test: as above; details: Five cell lines viability, CellTiter-Glo ATP luminescence, 48-72 h; max response: stronger effect = lower value
How it was run: as §1

NIH3T3 = test: as above; details: Five cell lines viability, CellTiter-Glo ATP luminescence, 48-72 h; max response: stronger effect = lower value
How it was run: as §1

UISO = test: qHTS assay to identify novel small-molecules to repurpose for Merkel cell carcinoma treatment (AID 1296009); details: MCC and control cell lines, CellTiter-Glo viability, 72 h; series mostly up to 46 µM; further: nearly all actives have a fitted effect of over 60% in size; further: potency means the concentration at half of the fitted maximal effect; on activity change, negative = cytotoxicity: on the % scale 0 is the no-effect control and ±100 the full control effect
How it was run: (§2)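 Dose-response viability screen; 72 hr exposure at 37 degree celsius; CellTiter-Glo added, 10 min room temperature, luminescence read; RLUs scaled between no-cell and DMSO wells.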

C33A = test: Primary qHTS to identify gynecologic anti-cancer compounds using libraries of approved drugs and bioactive compounds (AID 1345084); details: Gynecologic cancer cell panel viability, ATPlite luminescence, 48 h; series mostly up to 57.5 µM; further: potency means the concentration at half of the fitted maximal effect; nearly all actives have a fitted effect of over 55% in size
How it was run: (§3)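 Measured: luminescence after ATPlite addition (15 min, RT). Exposure: 48 h, 37 C, 5% CO2.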

CAOV3 = test: as above; details: Gynecologic cancer cell panel viability, ATPlite luminescence, 48 h; series mostly up to 57.5 µM
How it was run: as §3

CASKI = test: as above; details: Gynecologic cancer cell panel viability, ATPlite luminescence, 48 h; activity change, negative = cytotoxicity: at 57.5 µM (top of the series)
How it was run: as §3

Es-2 = test: as above; details: Gynecologic cancer cell panel viability, ATPlite luminescence, 48 h; series mostly up to 57.5 µM
How it was run: as §3

HeLa = test: as above; details: Gynecologic cancer cell panel viability, ATPlite luminescence, 48 h; series mostly up to 57.5 µM
How it was run: as §3

[1] = qHTS assay to identify inhibitors of the type 1 interferon - major histocompatibility complex class I in skeletal muscle: Counter screen cell viability and HiBit confirmation (AID 1347412); details: iHSKM muscle cells + IFN-b, HiBiT or CellTiter-Glo, 24 h; HiBiT; at 45.9 µM (top of the series)
How it was run: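 Luminescence read-out: Nano-Glo HiBiT lytic signal from C-terminally HiBiT-tagged HLA-B in CRISPR-edited human myoblasts, plus CellTiter Glo ATP as viability counter screen. IFN-beta 4.0 ng/ml; 24 hrs treatment at 37 C, 5% CO2.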

W2 = test: qHTS profiling for inhibitors of Plasmodium falciparum proliferation (AID 504749); details: P. falciparum in erythrocytes, SYBR Green DNA, 72 h; series mostly up to 28.7 µM
How it was run: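 Each compound contacts P. falciparum-infected red blood cells for 72 h at 37 C; lysis buffer (Tris, EDTA, saponin, Triton X, SYBR Green I) is added and fluorescence measured next morning; values normalized to controls.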

MKL-2 = test: qHTS assay to identify novel small-molecules to repurpose for Merkel cell carcinoma treatment (AID 1296009); details: MCC and control cell lines, CellTiter-Glo viability, 72 h; series mostly up to 46 µM; further: nearly all actives have a fitted effect of over 60% in size; further: potency means the concentration at half of the fitted maximal effect; on activity change, negative = cytotoxicity: on the % scale 0 is the no-effect control and ±100 the full control effect
How it was run: as §2

WaGa = test: as above; details: MCC and control cell lines, CellTiter-Glo viability, 72 h; series mostly up to 46 µM
How it was run: as §2

astro = test: Drug repurposing screens with cells derived from glioblastoma tumor samples (AID 1345199); details: viability, ATP luminescence, 48 h; activity, negative = cell killing: at 45.9 µM (top of the series); further: potency means the concentration at half of the fitted maximal effect; nearly all actives have a fitted effect of over 40% in size
How it was run: (§4)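 Primary testing used CD133+ neurospheres from four GBM patients, seven concentrations, 48 h exposure and ATP-based viability; confirmation added three slower-growing patient lines.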

MKL-1 = test: qHTS assay to identify novel small-molecules to repurpose for Merkel cell carcinoma treatment (AID 1296009); details: MCC and control cell lines, CellTiter-Glo viability, 72 h; series mostly up to 46 µM; further: nearly all actives have a fitted effect of over 60% in size; further: potency means the concentration at half of the fitted maximal effect; on activity change, negative = cytotoxicity: on the % scale 0 is the no-effect control and ±100 the full control effect
How it was run: as §2

[2] = Drug repurposing screens with cells derived from glioblastoma tumor samples (AID 1345199); details: GBM patient neurospheres viability, ATP luminescence, 48 h; Potency: tumour line A unless noted; activity, negative = cell killing: at 46 µM (top of the series), tumour line A unless noted; further: potency means the concentration at half of the fitted maximal effect; nearly all actives have a fitted effect of over 40% in size
How it was run: as §4
Tags describe the fitted curve by direction and shape.

In the case of `Nc1ccc(C(=O)Nc2cccc(-c3nc(N4CCOCC4)c4oc5ncccc5c4n3)c2)cn1`, the Potency (CRL-7250) is reported as inconclusive: 29.1 µM [inhibitor, single point], the Potency (HEK293) is reported as inconclusive: 833 nM [inhibitor, full curve] and active: 3.26 µM and the Potency (HaCat) is reported as inconclusive: 130 nM [inhibitor, full curve, poor fit]. The max response (HaCat) was inactive: -11.9%, the Potency (KB-3-1) was active: 20.6 µM and the Potency (NIH3T3) was inconclusive: 935 nM [inhibitor, full curve] and active: 2.31 µM. For the same molecule, the Potency (UISO) was “inactive”, the Potency (C33A) was inconclusive: 25.1 µM [cytotoxic, partial curve, poor fit] and the Potency (CAOV3) was inconclusive: 35.5 µM [cytotoxic, single point]. The Potency (CASKI) was active: 14.1 µM, the Potency (Es-2) was inconclusive: 39.8 µM [cytotoxic, single point] and the Potency (HeLa) was inconclusive: 39.8 µM [cytotoxic, single point].
For `CCc1cc(Nc2nccc(-c3c(-c4ccc(OC)c(C(=O)Nc5c(F)cccc5F)c4)nc4ccccn34)n2)c(OC)cc1N1CCC(N2CCN(S(C)(=O)=O)CC2)CC1`, the Potency (CRL-7250) was inconclusive: 29.1 µM [inhibitor, single point], the Potency (HEK293) was inconclusive: 1.32 µM [inhibitor, full curve, poor fit] and inconclusive: 1.46 µM [inhibitor, full curve] and the Potency (HaCat) was inconclusive: 4110 nM [inhibitor, full curve, poor fit]. For the same molecule, the Potency (NIH3T3) was inconclusive: 37.2 µM [inhibitor, single point], the activity change, negative = inhibition [1] was inactive: -22.7% and the Potency (HeLa) was inconclusive: 0.708 µM [cytotoxic, full curve, poor fit].
With `C1CCC(C(CC2CCCCN2)C2CCCCC2)CC1` (configuration not stated) the Potency (W2) was active: 1.69 µM, the Potency (CRL-7250) was inconclusive: 33.5 µM [inhibitor, single point] and inconclusive: 33.2 µM [inhibitor, single point] and the Potency (HEK293) was inconclusive: 2.99 µM [inhibitor, full curve, poor fit] and active: 26.4 µM. For the same molecule, the Potency (HaCat) was inconclusive: 26.6 µM [inhibitor, single point] and inconclusive: 37.2 µM [inhibitor, single point], the Potency (KB-3-1) was inconclusive: 29.1 µM [inhibitor, single point] and the Potency (NIH3T3) was inconclusive: 23.7 µM [inhibitor, single point] and inconclusive: 26.4 µM [inhibitor, single point]. The Potency (MKL-2) was active: 2.37 µM and active: 18.7 µM, the Potency (UISO) was active: 16.8 µM and the Potency (WaGa) was active: 21.1 µM. The Potency (astro) was active: 15.8 µM, the Potency (C33A) was active: 31.6 µM and the Potency (CAOV3) was active: 6.31 µM. The Potency (CASKI) was active: 20 µM, the Potency (Es-2) was active: 28.2 µM and the Potency (HeLa) was inconclusive: 31.6 µM [cytotoxic, single point].
For `O=S(=O)(O)c1ccc2cc(N=Nc3cc(S(=O)(=O)O)c4cccnc4c3O)ccc2c1`, the Potency (CRL-7250) was inconclusive: 37.2 µM [inhibitor, single point] and the max response (CRL-7250) was inactive: -1.21%.
In the case of `OC[C@H]1O[C@@H](n2cnc3c(=S)nc[nH]c32)[C@H](O)[C@@H]1O`, the Potency (CRL-7250) is reported as inconclusive: 13.3 µM [inhibitor, partial curve], the Potency (HEK293) is reported as active: 4.73 µM and the Potency (HaCat) is reported as active: 2990 nM. The Potency (KB-3-1) was inconclusive: 1.64 µM [inhibitor, full curve], the Potency (MKL-1) was inconclusive: 0.0841 µM [inhibitor, full curve] and the Potency (UISO) was inconclusive: 0.422 µM [inhibitor, full curve]. For the same molecule, the Potency (WaGa) was active: 0.237 µM, the Potency [2] was active: 1.41 µM and the Potency (C33A) was active: 7.94 µM. For the same molecule, the Potency (CASKI) was active: 2.24 µM and the Potency (HeLa) was active: 3.16 µM.
In the case of `CN1CCC(Nc2ncc3ncnc(Nc4ccc(F)c(Cl)c4)c3n2)CC1`, the Potency (W2) is reported as active: 5.36 µM, the Potency (CRL-7250) is reported as inconclusive: 33.5 µM [inhibitor, single point] and the Potency (HEK293) is reported as inconclusive: 23.7 µM [inhibitor, single point]. The Potency (HaCat) was active: 237 nM, the Potency (NIH3T3) was inconclusive: 29.9 µM [inhibitor, single point] and the Potency (MKL-1) was inconclusive: 26.6 µM [inhibitor, single point]. The Potency (astro) was active: 17.8 µM, the Potency (C33A) was inconclusive: 10 µM [cytotoxic, partial curve, poor fit] and the Potency (CAOV3) was inconclusive: 0.891 µM [cytotoxic, full curve, poor fit].
In the case of `Cc1cnc(CNC(=O)c2c(=O)c3ccc(N4CCCN(C)CC4)nc3n3c2sc2ccccc23)cn1`, the max response (CRL-7250) is reported as inactive: -36.5% and inactive: -21.3%, the Potency (HEK293) is reported as inconclusive: 0.237 µM [inhibitor, full curve, poor fit] and the Potency (HaCat) is reported as inconclusive: 668 nM [inhibitor, full curve]. For the same molecule, the Potency (KB-3-1) was inconclusive: 12.9 µM [inhibitor, partial curve] and inconclusive: 1.33 µM [inhibitor, partial curve, poor fit], the Potency (NIH3T3) was inconclusive: 7.2 nM [inhibitor, full curve] and inconclusive: 53.1 nM [inhibitor, full curve] and the Potency (UISO) was inconclusive: 4.57 µM [inhibitor, partial curve]. For the same molecule, the Potency (WaGa) was inconclusive: 0.575 µM [inhibitor, partial curve].
